From PubChem BioAssay AID875 (National Center for Advancing Translational Sciences (NCATS), 2007)
The whole screen tested about 75,000 compounds, of which about 35 (0.05%) were called active. The call rests on the fitted dose curve; in most records, active means well fitted inhibition curve with a large enough effect; inconclusive means small, poorly fitted or top-dose-only effect; inactive means no such curve, though single readings can be large or run the other way. The list shows a part of the results, in another mix than the full data.

These molecules were tested against Breast cancer type 1 susceptibility protein (Homo sapiens) (UniProt P38398) (assay: qHTS Assay for Inhibitors of BRCT-Phosphoprotein Interaction (Green Fluorophore)). Conditions: BRCA1 BRCT-phosphopeptide binding, green fluorescence polarization; series mostly up to 76.9 µM; activity change, negative = inhibition: at the top concentration.
Outline: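 Compounds were incubated for 12 min at room temperature with a complex of 100 nM fluorescein-tagged pBACH1 decapeptide and 250 nM His-tagged BRCT protein. Buffer was phosphate pH 7.3 with EDTA, DTT and Tween 20. Disruption of binding lowers the polarization signal.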
Potency means the concentration at half of the fitted maximal effect.
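Wherever activity change, negative = inhibition is given: plate controls were peptide without protein for full effect.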

Chain of UniProt P38398 (P38398 whole entry, looked up): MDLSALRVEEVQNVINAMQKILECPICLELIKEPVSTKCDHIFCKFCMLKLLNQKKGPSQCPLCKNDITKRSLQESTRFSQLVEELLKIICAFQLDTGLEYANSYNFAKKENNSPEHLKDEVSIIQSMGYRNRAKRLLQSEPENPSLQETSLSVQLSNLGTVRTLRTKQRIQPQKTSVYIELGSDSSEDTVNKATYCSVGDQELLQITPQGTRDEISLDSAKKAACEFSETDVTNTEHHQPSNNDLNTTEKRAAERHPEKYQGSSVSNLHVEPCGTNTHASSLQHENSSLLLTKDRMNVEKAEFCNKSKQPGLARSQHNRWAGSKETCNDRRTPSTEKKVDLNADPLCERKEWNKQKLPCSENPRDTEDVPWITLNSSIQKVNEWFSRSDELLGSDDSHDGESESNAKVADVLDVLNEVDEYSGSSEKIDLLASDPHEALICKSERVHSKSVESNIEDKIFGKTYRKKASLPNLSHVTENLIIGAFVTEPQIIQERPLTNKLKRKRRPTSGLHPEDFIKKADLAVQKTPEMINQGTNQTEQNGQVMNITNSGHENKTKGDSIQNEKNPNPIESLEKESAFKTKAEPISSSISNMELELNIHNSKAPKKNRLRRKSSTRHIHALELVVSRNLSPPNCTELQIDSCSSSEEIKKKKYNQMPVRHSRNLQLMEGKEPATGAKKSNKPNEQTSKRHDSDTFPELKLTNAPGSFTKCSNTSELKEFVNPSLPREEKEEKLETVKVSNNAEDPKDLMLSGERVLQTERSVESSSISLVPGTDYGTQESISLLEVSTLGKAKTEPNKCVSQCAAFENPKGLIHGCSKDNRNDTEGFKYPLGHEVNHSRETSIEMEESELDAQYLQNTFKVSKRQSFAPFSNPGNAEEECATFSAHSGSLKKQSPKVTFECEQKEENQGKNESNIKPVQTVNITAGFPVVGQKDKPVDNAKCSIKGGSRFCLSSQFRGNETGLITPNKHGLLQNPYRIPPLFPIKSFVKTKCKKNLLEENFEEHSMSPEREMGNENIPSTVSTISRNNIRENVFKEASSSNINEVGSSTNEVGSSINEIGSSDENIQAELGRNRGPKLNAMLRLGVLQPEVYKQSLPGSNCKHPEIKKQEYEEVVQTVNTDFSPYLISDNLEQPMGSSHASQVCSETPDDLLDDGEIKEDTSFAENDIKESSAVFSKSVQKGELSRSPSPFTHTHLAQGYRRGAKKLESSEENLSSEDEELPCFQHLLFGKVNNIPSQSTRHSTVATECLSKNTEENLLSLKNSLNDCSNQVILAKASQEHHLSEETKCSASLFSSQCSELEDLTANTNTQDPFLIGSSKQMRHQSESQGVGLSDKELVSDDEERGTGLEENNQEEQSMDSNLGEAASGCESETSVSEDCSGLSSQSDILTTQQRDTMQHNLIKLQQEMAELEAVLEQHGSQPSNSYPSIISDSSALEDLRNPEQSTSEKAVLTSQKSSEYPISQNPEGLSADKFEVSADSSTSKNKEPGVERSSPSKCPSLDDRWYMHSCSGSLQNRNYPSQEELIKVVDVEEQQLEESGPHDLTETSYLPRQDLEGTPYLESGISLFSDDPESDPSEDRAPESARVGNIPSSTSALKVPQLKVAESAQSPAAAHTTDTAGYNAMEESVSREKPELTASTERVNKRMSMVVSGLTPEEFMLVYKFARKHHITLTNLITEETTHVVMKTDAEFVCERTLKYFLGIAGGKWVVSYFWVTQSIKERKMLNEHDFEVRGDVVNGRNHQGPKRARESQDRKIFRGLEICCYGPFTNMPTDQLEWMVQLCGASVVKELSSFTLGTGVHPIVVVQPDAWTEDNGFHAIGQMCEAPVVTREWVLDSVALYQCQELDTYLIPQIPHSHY

Structure (SMILES)	activity change, negative = inhibition	Potency
CCCCc1ccc(C2C(C#N)=C(N)SC(N)=C2C#N)s1	inactive: 47.6%	–
COc1ccc(-n2nnnc2SCC(=O)c2cc3ccccc3o2)cc1	inactive: 59%	–
CCN(CC)c1ccc2cc(C(=O)Nc3ccc(-n4cnnn4)c(OC)c3)c(=O)oc2c1	inactive: 39.2%	–
COCCn1c(=O)c(-c2cc(F)cc(F)c2)nc2cnc(Nc3cccc(OC)c3)nc21	inactive: 42.9%	–
CC(=O)OCCNc1cc(N2CCN(C)CC2)c2noc3c2c1C(=O)c1ccccc1-3	inactive: 112%	–
Cn1cc(C2=C(c3ccc(Cl)cc3Cl)C(=O)NC2=O)c2ccccc21	inactive: 66.6%	–
Cc1cc(C(=O)Nc2sc(C)c(C)c2C#N)c(C)o1	inactive: 58.4%	–
COc1ccc(Oc2ncc3nc(-c4cccs4)c(=O)n(CCC#N)c3n2)cc1	inactive: 56.3%	–
CCOc1ccc2nc(NS(=O)(=O)c3ccc4c(c3)n(C)c(=O)n4C)sc2c1	inactive: 58.8%	–
Cc1cc(-c2ccc(N=Nc3ccc4c(S(=O)(=O)O)cc(S(=O)(=O)O)c(N)c4c3O)c(C)c2)ccc1N=Nc1ccc2c(S(=O)(=O)O)cc(S(=O)(=O)O)c(N)c2c1O	–	active: 31.6 µM
COC(=O)Cn1cnc2c(nnn2-c2cccc(Cl)c2)c1=O	inactive: 49.3%	–
COc1cccc(Nc2ncc3nc(CCc4ccccc4)c(=O)n(C4CC4)c3n2)c1	inactive: 42.1%	–
COc1ccccc1-c1nc(C(N)=O)c2[nH]c(=O)n(-c3cccc(C)c3)c2n1	inactive: 32.3%	–
N#CCCn1c(=O)c(CCc2ccccc2)nc2cnc(Nc3ccccc3)nc21	inactive: 30.6%	–
Cc1ccc(C2C3CSCC=C3C(C#N)=C(N)C2(C#N)C#N)cc1 (centres undefined)	inactive: 35%	–
C/C(=N\NC(=O)c1ccncc1)c1ccc2ccccc2c1O	inactive: 146% [at 15.4 µM]	–
Fc1ccc(Br)cc1C1C=C(c2ccc(Br)s2)Nc2ncnn21 (centres undefined)	inactive: 30.9%	–
CCNc1ncc2nc(CCc3ccccc3)c(=O)n(Cc3ccc(F)cc3)c2n1	inactive: 44.2%	–
Cc1coc(NC(=O)CSc2nc(-c3ccncc3)cc(C(F)(F)F)c2C#N)n1	inactive: 4.93%	–
O=C(O)c1ccccc1-c1ccc(/C=c2\sc3nc4cc(Br)cnc4n3c2=O)o1	inactive: 45%	–
CCOC(=O)c1sc(N)c(C#N)c1COC(=O)CNC(=O)c1ccccc1	inactive: 54%	–
N#C/C(=C\NC(=S)c1ccncc1)c1nc2ccccc2s1	inactive: 44.9% [at 15.4 µM]	–
CCNc1ncc2nc(-c3cc(F)cc(F)c3)c(=O)n(-c3ccccc3)c2n1	inactive: 73%	–
COc1ccc(-n2c(=O)c(-c3cccs3)nc3cnc(Nc4ccccc4)nc32)cc1	inactive: 80.5%	–
COc1ccc(-c2nc3cnc(N(C)C)nc3n(-c3ccccc3)c2=O)cc1	inactive: 47.3%	–
N#CC1=C(N)Oc2c(sc3ccccc23)C1c1ccco1 (centres undefined)	inactive: 32.7%	–
COc1cccc(Oc2ccc(N)cn2)c1	inactive: 58.5%	–

Structure (SMILES)	activity change, negative = inhibition	Potency
Cc1csc(SCC(=O)c2ccc(S(=O)(=O)N3CCOCC3)cc2)n1	inactive: 38.5%	–
COc1ccc(-c2cc(C(F)(F)F)nc(SCC(=O)N3CCOCC3)n2)cc1OC	inactive: 0.461%	–
CC(=O)c1c(O)c(C)c(O)c2c1OC1=CC(=O)C(C(C)=O)C(=O)[C@@]12C (some centres undefined)	inactive: 87.6%	–
c1coc(-c2nc(-c3ccco3)c(-c3ccco3)nc2-c2ccco2)c1	–	active: 12.6 µM
N#CC1=C(SCC(=O)c2cc3ccccc3oc2=O)NC(=O)C(C#N)C12CCCC2 (centres undefined)	inactive: 91.2%	–
CN(c1ccccc1)c1ccc(/C=c2\s/c(=C(/C#N)C(=O)C(C)(C)C)n(Cc3ccco3)c2=O)cc1	inactive: 94%	–
N=c1c2c(-c3ccccc3)c(-c3ccccc3)n(Cc3ccco3)c2ncn1Cc1ccco1	inactive: 60.5%	–
O=C(O)/C=C\c1c2ccc(=O)c(O)c-2oc2c(O)c(O)ccc12	–	active: 6.31 µM
COC(=O)c1ccc(CSc2nc3c(c(=O)n2-c2ccccc2)SCC3)o1	inactive: 47.9%	–
O=c1cnc2cnc(N3CCOCC3)nc2n1Cc1ccc(F)cc1	inactive: 42%	–
COc1ccc(-c2nc3cnc(N4CCN(C)CC4)nc3n(Cc3cccs3)c2=O)cc1	inactive: 37.5%	–
COCCn1c(=O)c(-c2ccc(OC)cc2)nc2cnc(Nc3cccc(OC)c3)nc21	inactive: 31.6%	–
CCOC(=O)CCSc1nc(C)cc(C(F)(F)F)c1C#N	inactive: 43.3%	–
CN(Cc1ccco1)c1ncnc2ccc(-c3ccccc3Cl)cc12	inactive: 36.5%	–
CC1CCN(c2nc3ccccc3nc2C(C#N)S(=O)(=O)c2ccccc2)CC1 (centres undefined)	inactive: 47.6%	–
CCOC(=O)C1=C(C)N=c2s/c(=C\c3cccn3C)c(=O)n2C1c1cccc(OC)c1OC (centres undefined)	inactive: 33.1%	–
CCN(CC)c1ccc2oc(=O)c(C)nc2c1	inactive: 64.4%	–
N=C(N)c1ccc(OCCCCCOc2ccc(C(=N)N)cc2)cc1	–	inactive
Cc1ccc(C2C(C#N)=C(N)SC(N)=C2C#N)c(C)c1	inactive: 57.7%	–
CC(=O)C1=C(O)C=C2Oc3c(C(C)=O)c(O)c(C)c(O)c3[C@]2(C)C1=O	inactive: 30.4%	–
N#Cc1c(C(F)(F)F)cc(-c2ccccc2)nc1SCc1nc(N)nc(N2CCOCC2)n1	inactive: 50%	–
C=CCn1c(=O)/c(=C/c2cc(OC)c(OC)c(OC)c2)s/c1=C(/C#N)c1nc2ccccc2n1C	inactive: 40.5%	–
O=C(Nc1ccc(-c2nc3ccccc3o2)c(O)c1)c1cc(-n2cnnc2)ccc1Cl	inactive: 36.8%	–
CN(C)c1ccc(/C=C/C(O)=C2/C(=O)N(C)C3(C)CC2c2ccccc2O3)cc1 (centres undefined)	inactive: 36.5%	–
CCOC(=O)c1ccc(NCn2c(=O)oc3ccccc32)cc1	inactive: 40.1%	–
COc1ccc(/C=C/C(=O)c2cccs2)c(OC)c1	inactive: 37%	–
N#CC1=C(N)SC(N)=C(C#N)C1CCC1CCCCC1	inactive: 90.3%	–
